The structures appear in SMILES notation. Where “and” joins values, the source holds several entries; their conditions need not be identical. Equal values may be shown once. Where a name gives a salt, the structure may show the parent alone. ± gives the standard deviation of the averaged measurements. In all, about 2,000 compounds were measured (“relative cell viability vs DMSO, compound + 0.2 uM CuET”: median about 1, lowest 2% from about 0.25 on). This is one part of the list.

This assay concerns TE10. The assay is described as follows: relative cell viability vs DMSO, compound + 0.2 uM CuET (fraction); TE10 is an esophageal squamous carcinoma line; higher = less cytotoxic. Conditions: 2 µM; co-treatment: CuET (bis(diethyldithiocarbamate)copper) 0.2 uM; 48 h. The protocol: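 TE10 ESCC cells (1,000/well, 384-well plates) were treated with Selleck bioactive library compounds at 2 uM combined with 0.2 uM CuET (copper diethyldithiocarbamate) for 48 h. Viability was read by CellTiter-Glo and expressed relative to DMSO wells. Two technical replicates (A, B).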
On to `O=c1[nH]c(=O)n(C2CCCO2)cc1F` (stereo unspecified), for which the relative cell viability is 1.3 ± 0.11.

Take `CCOC(=O)Nc1cc(-c2ccc(C)c(NS(C)(=O)=O)c2)nn2c(C)nnc12` [Bromosporine]: the relative cell viability came out at 0.739 ± 0.024. Then `C#CC[C@H](c1nc2cc(Cl)ccc2c(=O)n1Nc1ccccc1)N(CCCN)C(=O)c1cccc(Cl)c1F`, with 0.989 ± 0.035; and `C[C@@H]1CCN(C(=O)CC#N)C[C@@H]1N(C)c1ncnc2[nH]ccc12`, with 1.03 and 1.11.

On to `O=S(=O)(O)NC1CCCCC1` [Cyclamic  acid], for which the relative cell viability came to 1.26 ± 0.21. Under `O=C(NCCO)c1cccc(-c2cc(Nc3ccc(OC(F)(F)F)cc3)ncn2)c1` stands 1.15 ± 0.042; under `COCC[n+]1c2c(n(Cc3cnccn3)c1C)C(=O)c1ccccc1C2=O` [YM155 (Sepantronium Bromide)], 0.111 ± 0.0058. Under `COc1ccc([C@]2(C#N)CC[C@@H](C(=O)O)CC2)cc1OC1CCCC1` [Cilomilast] stands 1.04 ± 0.069; under `O=C1c2ccccc2C(=O)c2c1ccc(O)c2O` [Alizarin], 1.1 ± 0.029; under `CC(/C=C1\SC(=S)N(CC(=O)O)C1=O)=C\c1ccccc1` [Epalrestat], 1.06 ± 0.12. Then `c1ccc(CNc2nc(NCc3ccccc3)c3ccccc3n2)cc1`, with 0.623 ± 0.11; and `COC(=O)CCSCc1ccc(-c2onc(C)c2NC(=O)OC(C)c2ccccc2Cl)cc1` (stereo unspecified), with 0.919 ± 0.024. For `Cc1nc(=O)c2cc(CN(C)c3ccc(C(=O)N[C@@H](CCC(=O)O)C(=O)O)s3)ccc2[nH]1` [Raltitrexed], the relative cell viability was determined as 0.948 ± 0.02. With `CS(=O)(=O)N1CCc2c(-c3cnc(N)nc3)nc(N3CCOCC3)nc21`, the relative cell viability stood at 0.686 ± 0.0086. Then `O=c1oc2ccccc2c(O)c1Cc1c(O)c2ccccc2oc1=O` [Dicoumarol], with 1.056 ± 0.0037; and `Cc1ccccc1CN1C2=NCCN2C(=O)C2=C1CCN(Cc1ccccc1)C2` [TIC10 Analogue], with 1.11 ± 0.052; and `Nc1cc(C(Cl)=C(Cl)Cl)c(S(N)(=O)=O)cc1S(N)(=O)=O` [Clorsulon], with 0.984 ± 0.21. Under `CC[C@H](C)C(=O)O[C@H]1CCC=C2C=C[C@H](C)[C@H](CC[C@@H]3C[C@@H](O)CC(=O)O3)[C@H]21` [Mevastatin] stands 1.11 ± 0.13; under `COc1ccc([C@@H]2CC(=O)c3c(O)cc(O[C@@H]4O[C@H](CO)[C@@H](O)[C@H](O)[C@H]4O[C@@H]4O[C@@H](C)[C@H](O)[C@@H](O)[C@H]4O)cc3O2)cc1O` [Neohesperidin], 1.2 ± 0.14. Then `CC(=O)OCC(CCn1cnc2cnc(N)nc21)COC(C)=O` [Famciclovir], with 1.27 ± 0.052; and `CC(C)CC(CC(=O)NO)C(=O)N[C@@H](Cc1ccc2ccccc2c1)C(=O)N[C@@H](C)C(=O)NCCN` (stereo partly specified), with 1.19 ± 0.051.

Regarding `O=C(/C=C/c1ccc(O)c(O)c1)OCCc1ccccc1` [Caffeic Acid Phenethyl Ester], the relative cell viability is 0.875 ± 0.056. Under `C=CC(=O)Nc1cccc(Oc2nc(Nc3ccc(N4CCN(C)CC4)cc3OC)ncc2Cl)c1` stands 0.929 ± 0.086.

For `C[C@H](CCC(=O)O)[C@H]1CC[C@H]2[C@@H]3[C@H](O)C[C@@H]4C[C@H](O)CC[C@]4(C)[C@H]3CC[C@]12C` [Chenodeoxycholic Acid], the relative cell viability was found to be 0.999 ± 0.047. Under `CCC(=O)O[C@]1(C(=O)CCl)[C@@H](C)C[C@H]2[C@@H]3CCC4=CC(=O)C=C[C@]4(C)[C@@]3(F)[C@@H](O)C[C@@]21C` [Clobetasol propionate] stands 1.05 ± 0.028; under `O=C1C[C@@H](c2ccc(O)cc2)Oc2cc(O)cc(O)c21` [Naringenin], 1.16 ± 0.16; under `O=S(=O)(O)c1cc(O)ccc1O` [Ethamsylate], 1.08 ± 0.096. Under `COc1ccc(F)c(F)c1C(=O)c1cnc(NC2CCN(S(C)(=O)=O)CC2)nc1N` stands 0.558 ± 0.14; under `CCOC(=O)[C@H](CCc1ccccc1)N[C@H]1CS[C@H](c2cccs2)CN(CC(=O)O)C1=O` [Temocapril HCl], 1.08 ± 0.088. `O=c1c(O)c(-c2ccc(O)cc2O)oc2cc(O)cc(O)c12` [Morin Hydrate]: the relative cell viability worked out at 0.979 ± 0.075.

As to `COc1ccc(C2CNC(=O)C2)cc1OC1CCCC1` (stereo not drawn) [S- (+)-Rolipram], the relative cell viability was 1.04 ± 0.031. Then `COc1ccc(C2CNC(=O)C2)cc1OC1CCCC1` (stereo unspecified) [Rolipram], with 1.17 ± 0.036; and `CC(=O)Nc1nc(C)c(-c2ccc(Cl)c(S(=O)(=O)NCCO)c2)s1`, with 0.884 ± 0.06; and `C[C@H]1C[C@@H]2[C@H]([C@@H](O)C[C@@]3(C)[C@H]2CC[C@]3(O)C(=O)CO)[C@@]2(C)C=CC(=O)C=C12` [Methylprednisolone], with 1.19 ± 0.014. Then `COc1ccccc1OCC(O)CN1CCN(CC(=O)Nc2c(C)cccc2C)CC1` (stereo unspecified) [Ranolazine 2HCl], with 1.23 ± 0.072; and `COc1ccccc1OCC(O)CN1CCN(CC(=O)Nc2c(C)cccc2C)CC1` (stereo unspecified) [Ranolazine], with 1.09 ± 0.11; and `CN(C)C(=S)NN=C(c1ccccn1)c1ccccn1`, with 0.943 ± 0.047. Take `COc1cc([C@@H]2c3cc4c(cc3[C@@H](O[C@@H]3O[C@@H]5CO[C@@H](C)O[C@H]5[C@H](O)[C@H]3O)[C@H]3COC(=O)[C@H]23)OCO4)cc(OC)c1O` [Etoposide]: the relative cell viability was found to be 0.833 ± 0.2. Under `CCCNCC(O)COc1ccccc1C(=O)CCc1ccccc1` (stereo unspecified) [Propafenone HCl] stands 1.05 ± 0.13; under `O=C1c2ccc(Nc3ccc(F)cc3F)cc2CCc2ccc(OC[C@H](O)CO)cc21` [Skepinone-L], 1.17 ± 0.018. Then `CC(NC(=O)C(O)c1cc(F)cc(F)c1)C(=O)NC1C(=O)N(C)c2ccccc2-c2ccccc21` (stereo unspecified), with 1.07 ± 0.058; and `CN(C)c1nc(N(C)C)nc(N(C)C)n1` [Altretamine], with 1.251 ± 0.0082.

`Nc1nc2n[nH]nc2c(=O)[nH]1` [Azaguanine-8]: the relative cell viability came out at 1.22 ± 0.091. Then `O=C(O)c1cc(-c2ccccc2)nc2ccccc12` [Cinchophen], with 1.02 ± 0.034; and `CC(=O)O[C@]1(C(C)=O)CC[C@H]2[C@@H]3C[C@H](C)C4=CC(=O)CC[C@]4(C)[C@H]3CC[C@@]21C` [Medroxyprogesterone acetate], with 1.01 ± 0.067. Under `COc1cc2c(Oc3ccc4[nH]c(C)cc4c3F)ncnc2cc1OCCCN1CCCC1` [Cediranib (AZD2171)] stands 0.948 ± 0.061; under `O=c1cc[nH]c(=S)[nH]1` [2-Thiouracil], 1.1 ± 0.12. As for `Cc1cccc(C#Cc2ccccc2)n1`, the relative cell viability came out at 0.729 ± 0.23.

As to `CC(C)(C)c1ccc(-c2nc3ccccc3[nH]2)cc1`, the relative cell viability was determined as 0.3 ± 0.029. Then `O=C(/C=C/c1ccc(CN(CCO)CCc2c[nH]c3ccccc23)cc1)NO` [LAQ824 (Dacinostat)], with 0.145 ± 0.0072; and `Cc1nc(-c2cn3c(n2)-c2ccc(-c4cnn(C(C)(C)C(N)=O)c4)cc2OCC3)n(C(C)C)n1`, with 0.675 ± 0.072; and `Cc1c(F)cc(C(=O)NC2CC2)cc1-c1ccc(C(=O)NCC(C)(C)C)cn1`, with 1.07 ± 0.098. Then `COc1ccc(S(=O)(=O)N(C(C)=O)c2ccccc2/C=C/c2cc[n+]([O-])cc2)cc1`, with 1.1 ± 0.082; and `CC[C@H]1OC(=O)[C@H](C)[C@@H](O[C@H]2C[C@@](C)(OC)[C@@H](O)[C@H](C)O2)[C@H](C)[C@@H](O[C@@H]2O[C@H](C)C[C@H](N(C)C)[C@H]2O)[C@](C)(O)C[C@@H](C)[C@@H]2N[C@@H](COCCOC)O[C@H]([C@H]2C)[C@]1(C)O` [Dirithromycin], with 1.0283 ± 0.00083.

Take `O=C1CC2(CCCC2)CC(=O)N1CCCCN1CCN(c2ncccn2)CC1` [Buspirone HCl]: the relative cell viability was found to be 1.14 ± 0.087.

For `CC(C)c1cc(-c2ccc(F)c3ccccc23)nc(N)n1`, the relative cell viability was 1.46 ± 0.44. As for `O=C(NOC[C@H](O)CO)c1ccc(F)c(F)c1Nc1ccc(I)cc1F`, the relative cell viability amounted to 1.1 ± 0.053. Under `Cc1cc(C)c(/C=C2\C(=O)Nc3ccccc32)[nH]1` [Semaxanib (SU5416)] stands 1.17 ± 0.37. Then `CCN=C1N[C@@H]2[C@@H](O)[C@H](O)[C@@H](CO)O[C@@H]2S1` [Thiamet G], with 1.16 ± 0.065; and `CC(=O)Nc1ncc([N+](=O)[O-])s1` [Nithiamide], with 1.49 ± 0.068; and `CNc1cccc(CCOc2ccc3c(c2)CN(CC(F)(F)F)C(=O)[C@H](CC(=O)O)C3)n1`, with 1.04 ± 0.12. Then `CCCCCCCCCCCCCCCC(=O)O[C@@H]1[C@@H](O)[C@@H](O)[C@@H]([C@H](NC(=O)[C@@H]2C[C@@H](CCC)CN2C)[C@H](C)Cl)O[C@@H]1SC` [Clindamycin palmitate HCl], with 1.33 ± 0.12. Regarding `CN1CCN(CCOc2cc(OC3CCOCC3)c3c(Nc4c(Cl)ccc5c4OCO5)ncnc3c2)CC1` [Saracatinib (AZD0530)], the relative cell viability was determined as 0.565 ± 0.34. Then `CCOCC(O)COc1ccc(NC(=O)CC[S+](C)C)cc1` (stereo unspecified) [Suplatast Tosylate], with 0.922 ± 0.026. Under `CC1Cc2ccccc2N1NC(=O)c1ccc(Cl)c(S(N)(=O)=O)c1` (stereo unspecified) [Indapamide] stands 0.9492 ± 0.0029; under `O=C(/C=C\n1cnc(-c2cc(C(F)(F)F)cc(C(F)(F)F)c2)n1)NNc1ccccn1` [Verdinexor (KPT-335)], 0.294 ± 0.0026; under `C=CC(=O)Nc1ccc2ncnc(Nc3cccc(Br)c3)c2c1`, 0.79 ± 0.068. Then `CCC(=O)c1c(O)cc(O)cc1O` [Flopropione], with 1.13 ± 0.052; and `COc1ccccc1S(=O)(=O)Nc1ccc2c(c1)CN(C)C(=O)N2`, with 0.852 ± 0.051; and `FC(F)c1nc2ccccc2n1-c1nc(N2CCOCC2)nc(N2CCOCC2)n1`, with 0.6535 ± 0.0037. As to `Cc1nnc(NS(=O)(=O)c2ccc(N)cc2)s1` [Sulfamethizole], the relative cell viability was found to be 1.07 ± 0.011.

Turning to `CC(C)Oc1ccc(C(=O)N[C@H](CNC(=O)CN(C)C)Cc2ccc(-c3cn4cccc([C@H](C)O)c4n3)cc2)cc1Cl`, the relative cell viability stood at 0.963 ± 0.046. Take `C[C@@H]1C[C@H]2[C@@H]3CCC4=CC(=O)C=C[C@]4(C)[C@@]3(F)[C@@H](O)C[C@]2(C)[C@@]1(O)C(=O)CO` [Dexamethasone (DHAP)]: the relative cell viability is 1.17 ± 0.09. Under `OC1(c2ccc(Cl)c(C(F)(F)F)c2)CCN(CCCC(c2ccc(F)cc2)c2ccc(F)cc2)CC1` [Penfluridol] stands 0.252 ± 0.037. Then `CC1(C)O[C@@H]2C[C@H]3[C@@H]4CCC5=CC(=O)C=C[C@]5(C)[C@@]4(F)[C@@H](O)C[C@]3(C)[C@]2(C(=O)CO)O1` [Triamcinolone Acetonide], with 1.11 ± 0.15; and `Cc1cnc(NC(=O)C2=C(O)c3ccccc3S(=O)(=O)N2C)s1` [Meloxicam], with 1.06 ± 0.14.

The values above are taken from the supplement of paper PMC10670038.
